The results in this text go back to the supplement of paper PMC11417369.

± gives the standard deviation of the averaged measurements. Some of the results follow.

The subject of this test is PfAP2-G AP2 domain (GST-tagged). The test can be described thus: gcPBM binding intensity (ln(normalized median fluorescence intensity)); higher = stronger DNA binding. A digest of the protocol:
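Binding intensity is the highest Masliner-normalised natural-log median intensity over replicate spots in either probe orientation. To obtain it, GST-tagged P. falciparum DNA-binding domains made in E. coli were incubated for 1 h on an Agilent 4 × 180k array of primer-extended double-stranded 36-bp intergenic genomic probes plus negative controls. Detection used Alexa488 anti-GST antibody with scanning at 488 nm.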
Turning to “AATTAGACATAATATACACACATATATTATAGATAT [CACACA_site7297]”, the “gcPBM binding intensity (ln)” value stood at 9.815 ± 0.007.
For the sequence “TATATTATTATAATTTGTACATATCTAATTATATAT [XGTACX_site5342]”, the “gcPBM binding intensity (ln)” value turned out to be 10.8 ± 0.52.
With “TAAAGATATTATTTTTGTACATATTGATATAATGAA [XGTACX_site6571]”, the “gcPBM binding intensity (ln)” value turned out to be 10.9 ± 0.53.
With “TTTTTATAACGTAATAAATAAAACGTCTATACTATA [XGTACX_negctrl_site176]”, the “gcPBM binding intensity (ln)” value amounted to 10 ± 0.28.
“AAAAATATAATATAATGTACACAAAAAAAAAAATTC [XGTACX_site3657]”: the “gcPBM binding intensity (ln)” value amounted to 11.4 ± 0.79.
Regarding TAAATAAATCTGTGCTTGCACTTTTTTTGTTATTTT, the “gcPBM binding intensity (ln)” value was determined as 9.94 ± 0.21.
Next, “AAAATAAAAAAAATAAATAAAAAAAATAATAATAAA [CACACA_negctrl_site563]”: 9.455 ± 0.035; TCATAAATATAAAGTGTGCACTTGAATAATATGTAT: 10.15 ± 0.099.
As for “ATTTAACATATAAAATGTACATATATATATATATTT [XGTACX_site2525]”, the “gcPBM binding intensity (ln)” value amounted to 10.8 ± 0.54.
The figure for “GTACCATCAAAATAAATATATATATATATATATTTT [GTGCAC_negctrl_site646]” is 9.86 ± 0.35.
In the case of “ATATAAACATATAATAGTACACTTCGATAATTTTAT [XGTACX_site3321]”, the “gcPBM binding intensity (ln)” value came to 11.2 ± 0.61.
For the sequence “AGGAAAATTTTATTTGCACACATTATTACGTCTAAA [CACACA_site2337]”, the “gcPBM binding intensity (ln)” value turned out to be 10.3 ± 0.23.
Take “CATATATATATTGGAAGTACATATTTAATATTCATT [XGTACX_site3545]”: the “gcPBM binding intensity (ln)” value worked out at 11.4 ± 0.7.
“TCTTTTTTCATATTTTCACACATGTCTTTATATTTA [CACACA_site6025]”: the “gcPBM binding intensity (ln)” value came out at 10.1 ± 0.042.
On to “TTTGTGTTGTATTTTTGTACATAAAATAAACTTAAA [XGTACX_site4637]”, for which the “gcPBM binding intensity (ln)” value worked out at 11 ± 0.64.
TTTCTTTTTTCTTCAGTGCATTAAAATTAACAAAAG: the “gcPBM binding intensity (ln)” value was determined as 10.2 ± 0.33.
Take “GAGCCCAAAAAATTAGGTACGTATAAAGAGGTATTT [XGTACX_site5348]”: the “gcPBM binding intensity (ln)” value stood at 11.2 ± 0.71.
Take “ATAAAGTATATTATATGTACATATATATATTATATA [XGTACX_site1345]”: the “gcPBM binding intensity (ln)” value was 11.1 ± 0.52.
On to “AGATGAGAAATATATACACACAATAATACCTATTTA [CACACA_site876]”, for which the “gcPBM binding intensity (ln)” value worked out at 9.93 ± 0.16.
With “ACATGTAATATAATGTGTACATATACAAAGGTATAT [XGTACX_site4145]”, the “gcPBM binding intensity (ln)” value is 11.5 ± 0.87.
As to “GTTAAGTGGATATATACACACATATGCAATACATGA [CACACA_site7427]”, the “gcPBM binding intensity (ln)” value worked out at 10.07 ± 0.099.
In the case of “TATACTACCCAGAGCTGTACAAAATAATAATAAGTT [XGTACX_site1045]”, the “gcPBM binding intensity (ln)” value was determined as 10.7 ± 0.47.
For ATGGTTATATTTGAAGTGCAAAAAAAAATATATGTA, the “gcPBM binding intensity (ln)” value was 10.3 ± 0.29.
Next, “ATGTGGATTTTATAATGTACATATGATATTATTTTG [XGTACX_site7930]”: 11 ± 0.6; “CAATTCAATATATATACACACACACTATTAATAATT [CACACA_site9256]”: 10.1 ± 0.2.
For “TATATTTTTATGTGTGTGCACAAAATAACAAAATAT [GTGCAC_site9596]”, the “gcPBM binding intensity (ln)” value turned out to be 10.7 ± 0.5.
ATTATTTTTTTTGAAGTGCAATATTATTTTTAATCA: the “gcPBM binding intensity (ln)” value was 9.99 ± 0.18.
The figure for “ATAAACAGATAAAAGGGTACACACATATATACATGT [XGTACX_site452]” is 11.4 ± 0.84.
With “TTATATATATATTGTTCACACATAATATAAATATTT [CACACA_site5835]”, the “gcPBM binding intensity (ln)” value worked out at 9.86 ± 0.014.
The figure for “TTAAATAAAATAAAAACATGCACACTTTATTTTTTT [TGCATGCA_site719]” is 9.985 ± 0.021; for “TTTTAATAAATCATTTTCCTAATATTTATATTTGCT [TGCATGCA_negctrl_site232]” it is 9.53 ± 0.14; for “TTTTTCATTTAGCTTTTACACACTATATATTATTGA [CACACA_site7888]” it is 9.905 ± 0.064.
As for “ATTCCTTTATTATCACGTACTTATAAAATATAGTAT [XGTACX_site7498]”, the “gcPBM binding intensity (ln)” value came to 11.2 ± 0.6.
Consider “AATAAAAAAAATTTCTGTACATATATTTATTATATA [XGTACX_site1883]”, for which the “gcPBM binding intensity (ln)” value worked out at 11.1 ± 0.74.
On to “CTCTTTTCTTATAATACACACAGTAATATTTATATA [CACACA_site6824]”, for which the “gcPBM binding intensity (ln)” value was 10.4 ± 0.39.
For “TACTTTTTTATTTGGTGTACAAATAAAATCATAATG [XGTACX_site1802]”, the “gcPBM binding intensity (ln)” value came to 11.5 ± 0.86.
Next, “ATATATTTTGATTGCACACAGAATTTAAATCATGAT [CACACA_site2343]”: 10.1 ± 0.2; “GAAGATATATAATAATTCATAGTTTTTTAATTTAAA [TGCATGCA_negctrl_site295]”: 9.45 ± 0.18; “CAAACCCACCAACACACACACACAAAAATGATTAAA [CACACA_site2432]”: 10.2 ± 0.35.
Next, “AATAAAAAGGAACACACACACACACCGATATATATA [CACACA_site5895]”: 10.1 ± 0.15; “TACATACACAGACACACACACATATATATATATATA [CACACA_site3557]”: 10.2 ± 0.38.
The figure for “AATATATACATATATACACACACATATATTATATAT [CACACA_site7980]” is 9.895 ± 0.007; for “TAAATATAAGTGTACATACACACTTTACAATCTCAT [CACACA_site3006]” it is 11.3 ± 0.72.
For the sequence “TATTGTAGTCATGCACGTACAAAAGGAAAGTTAAAA [XGTACX_site4446]”, the “gcPBM binding intensity (ln)” value came to 11.3 ± 0.75.
Regarding “AAATAAAATATTACATGTACATGTTCATAAAAAAAA [XGTACX_site1067]”, the “gcPBM binding intensity (ln)” value was 11.2 ± 0.65.
